# This is one part of the list.
# Test system: T1, Caupolican (Caup) homeodomain DNA-binding domain
# T1 sequence: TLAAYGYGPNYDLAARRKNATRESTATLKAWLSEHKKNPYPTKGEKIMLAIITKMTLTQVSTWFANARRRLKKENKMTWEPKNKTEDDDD
# Test: PBM E-score (8-mer, recovered from the published 9-mer minima) (E-score (dimensionless, -0.5 to 0.5)); Drosophila protein; higher = stronger relative binding preference, active = 0.31 or more
# Outline: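 An enrichment score, with higher meaning stronger, expresses relative binding preference for each short DNA word. The protein used was Caup's homeodomain DNA-binding domain (residues 214-303), produced by in vitro transcription and translation and tested at 100 nM on custom-designed protein binding microarrays. The 8-mer values were recovered from published 9-mer scores, each equal to the lower of its two constituent 8-mer scores.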
row,Sequence,PBM E-score
1,ACTATTTG,inactive: 0.153
2,GACCCCGC,inactive: -0.186
3,ACGTTGCA,inactive: 0.0715
4,GAAGACGA,inactive: -0.027
5,ATTCGAAT,inactive: 0.0996
6,ATGCCGAA,inactive: -0.0191
7,CCACCCTC,inactive: -0.162
8,CCCAGGAA,inactive: -0.0999
9,CTTGGCTA,≥ 0.00834
10,TGCCCGCA,≥ -0.0686
11,ATATACGC,inactive: 0.0323
12,CGAAGTCC,inactive: -0.149
13,GTATAAGA,inactive: 0.112
14,GACCCTCA,inactive: -0.187
15,AATGCTGA,inactive: 0.0809
16,GCCGCTGA,inactive: -0.126
17,GAGACAGC,inactive: -0.0488
18,CCCACCTC,inactive: -0.19
19,AGCTTACG,inactive: -0.0965
20,AATTATGA,inactive: 0.134
21,GCAGATAA,inactive: 0.00489
22,CCAAGTCG,inactive: -0.0916
23,ATCGTGCG,inactive: 0.0382
24,CGCCTAAG,inactive: -0.0812

row,Sequence,PBM E-score
1,GAACTCCA,inactive: 0.0163
2,TCCACAGA,inactive: -0.0276
3,CGCCACTA,inactive: -0.12
4,CGGAGACG,≥ -0.0273
5,CGAACTGA,inactive: -0.00138
6,CCTGTTGA,inactive: 0.132
7,AGAGTACA,inactive: 0.187
8,ACCCCGCA,inactive: -0.142
9,AGACACCA,inactive: 0.0767
10,TAAGATCA,inactive: 0.131
11,GAATATGC,inactive: 0.00016
12,GCAAGCCA,inactive: -0.0551
13,GAGCGTTA,inactive: -0.0189
14,GATACGGA,inactive: 0.0443
15,CTACGGAC,inactive: -0.0424
16,ATTGGCAC,inactive: 0.0808
17,ATTACGGG,inactive: 0.00511
18,AGTTGTAT,inactive: 0.231
19,CTCGCTAA,inactive: 0.067
20,ATTCAAAT,inactive: 0.145
21,AGATCGCT,inactive: -0.0259
22,AGCAATAA,inactive: 0.0348
23,GACTTGCA,inactive: 0.0909
24,AACGGAAC,inactive: 0.0201

row,Sequence,PBM E-score
1,ATGCATGC,inactive: 0.107
2,TCGACCCA,inactive: -0.0821
3,AAAAACAG,inactive: 0.0835
4,AGGCAAAT,inactive: 0.0372
5,ATGTTATC,active: 0.351
6,CGGGAAGA,≥ -0.0231
7,AGGCGAGG,inactive: -0.231
8,ACAAACTG,inactive: 0.0701
9,CTACTGAC,inactive: 0.0337
10,ATACCGGG,inactive: -0.0214
11,GGTGTCAC,inactive: 0.128
12,GCCAGACA,inactive: 0.0359
13,AGTGCTGG,inactive: -0.1
14,TGTATCAA,active: 0.315
15,ACCCGAGC,inactive: -0.0823
16,AGAACTAT,inactive: 0.0799
17,AGTTATCA,inactive: 0.112
18,CGCCTCCG,inactive: -0.187
19,GAGCTATA,inactive: -0.0524
20,ATTCTCTG,inactive: -0.021
21,GGCCAACA,inactive: 0.0188
22,CCCAGCGA,inactive: -0.18
23,ACACAGAT,inactive: 0.243
24,CTACCTTC,inactive: -0.0371

row,Sequence,PBM E-score
1,ACGAGTTC,inactive: 0.11
2,CAAGACAG,inactive: 0.0905
3,AGACGGTG,inactive: -0.141
4,CAGCAATG,inactive: 0.0573
5,CTCATCGA,inactive: -0.0758
6,AAAGCAGC,inactive: -0.05
7,ACTACCCG,inactive: -0.0238
8,CAAAGACG,inactive: -0.0927
9,AACGCCAC,inactive: -0.0639
10,CATGATTA,inactive: 0.206
11,ACCTCTCA,inactive: -0.0642
12,ATGGGGAC,inactive: -0.035
13,CTACTAAC,inactive: 0.125
14,ATGCCGAC,inactive: 0.0283
15,GCCGCCGC,inactive: -0.27
16,ACCACAAT,inactive: -0.00259
17,GCCGTTCA,inactive: -0.128
18,GAGACCTA,inactive: -0.124
19,CCATAGAG,inactive: -0.104
20,AGAGTGGA,inactive: 0.00953
21,GCGACGAC,inactive: -0.115
22,GAACGCGC,inactive: -0.11
23,AGGTGAAA,inactive: 0.0529
24,ACTCACAA,inactive: 0.0864

row,Sequence,PBM E-score
1,CACCGATC,inactive: 0.0175
2,CAATGCCC,inactive: -0.115
3,CCACTAGC,inactive: -0.138
4,GCGGATCC,inactive: -0.194
5,CCACAAGG,inactive: -0.023
6,AATTCATG,inactive: 0.148
7,GCCCGTAA,inactive: -0.0409
8,AGAGTGCG,inactive: -0.148
9,AGATCTAA,inactive: 0.0169
10,CGACCGAA,inactive: -0.149
11,AAGGGTAT,inactive: 0.0696
12,GAAGTTGA,inactive: -0.00745
13,GGAATAGA,inactive: 0.0847
14,CAGAGAAG,inactive: -0.132
15,ATGCCGTG,inactive: 0.0172
16,AAGCTAGC,inactive: -0.0853
17,CCATAATC,inactive: 0.0795
18,AGGCTGAC,inactive: -0.054
19,ACTGACAG,inactive: 0.0804
20,CAGGCGTC,inactive: -0.134
21,ATGAACAG,inactive: 0.22
22,GTGAAAAA,inactive: 0.0336
23,CCCTTAGG,inactive: -0.0863
24,AGCGTTAG,inactive: -0.0677

row,Sequence,PBM E-score
1,ATGAATAG,inactive: 0.1
2,AGAGGAAC,inactive: 0.00858
3,CTCCTCCA,inactive: -0.0912
4,AGGTTTCC,inactive: -0.0219
5,AAAGCTGA,inactive: -0.106
6,AGCTTAGC,inactive: -0.0158
7,GTTATTTA,inactive: 0.201
8,ACGAGAGT,≥ 0.0592
9,CAATCGAC,inactive: 0.115
10,CCTCAAAC,inactive: -0.0812
11,CCACCCCG,inactive: -0.124
12,CCCTCCCC,inactive: -0.196
13,AACAATGA,inactive: 0.244
14,AATGTCTC,inactive: 0.112
15,ATTCTAAG,inactive: 0.0807
16,AGGTCCGA,inactive: -0.0154
17,CTAGCTCC,inactive: -0.0844
18,ACTCTTCT,inactive: 0.00993
19,GAAGAGGA,inactive: -0.161
20,AGAACGTA,inactive: 0.06
21,AATTAGCG,inactive: 0.0216
22,AGTAGCCG,inactive: -0.0355

# From the supplement of paper PMC3724861
